Among the data in the supplement of paper PMC12230231 are enrichment values, retold here.

± gives the standard deviation of the averaged measurements. Restriction of a single-cycle SIVsab GFP reporter by TRIM5α v1-loop variants in CRFK cells. Human variants: read share among cells still uninfected after two challenges over input, higher = gained restriction. Rhesus variants: share among infected cells over input, higher = lost restriction. Reporter dose not given per row. No active / inactive call per row; the paper calls a change when both replicates lie above its controls (mean + 2 SD of stop or wild-type variants, or the top frameshift score). Residues outside the varied loop are taken from Swiss-Prot. The paper reads the human single-substitution scores as noise; they and the rhesus combinations repeat poorly (rank correlation 0.3 to 0.4), indel scores repeat only for the top variants, rhesus substitutions well (0.9).

The test system of the first series is SIVsab (simian immunodeficiency virus of sabaeus monkeys), single-cycle GFP reporter, in CRFK cells. Description: enrichment among uninfected cells over input (fold); higher = stronger restriction. As to conditions: library: human / rhesus combinations. As to the method:
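Pools of CRFK cells expressing variants of the TRIM5α v1 loop were challenged with the single-cycle reporter, sorted by GFP and sequenced; mean of two replicates.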
Regarding “MASGILVNVKEEVTCPICLELLTQPLSLDCGHSFCQACLTANHKKSMLDKGESSCPVCRISYQPENIRPNRHVANIVEKLREVKLSPEGQKVDHCARHGEKLLLFCQEDGKVICWLCERSQEHRGHHTFLTEEVAREYQVKLQAALEMLRQKQQEAEELEADIREEKASWKTQIQYDKTNVLADFEQLRDILDWEESNELQNLEKEEEDILKSLTNSETEMVQQTQSLRELISDLEHRLQGSVMELLQGVDGVIKRTENVTLKKPETFPKNQRRVFRAPDLKGMLEVFRELTDVRRYWVDVTVAPNNISCAVISEDKRQVSSPKPQIIYGARGTLYTFQSLTNFNYCTGILGSQSITSGKHYWEVDVSKKTAWILGVCAGFQPDAMCNIEKNENYQPKYGYWVIGLEEGVKCSAFQDSSFHTPSVPFIVPLSVIICPDRVGVFLDYEACTVSFFNITNHGFLIYKFSHCSFSQPVFPYLNPRKCGVPMTLCSPSS [human TRIM5α, 330-340 = GARGTLYTFQSLT]”, the enrichment was found to be 0.301 ± 0.2. On to “MASGILVNVKEEVTCPICLELLTQPLSLDCGHSFCQACLTANHKKSMLDKGESSCPVCRISYQPENIRPNRHVANIVEKLREVKLSPEGQKVDHCARHGEKLLLFCQEDGKVICWLCERSQEHRGHHTFLTEEVAREYQVKLQAALEMLRQKQQEAEELEADIREEKASWKTQIQYDKTNVLADFEQLRDILDWEESNELQNLEKEEEDILKSLTNSETEMVQQTQSLRELISDLEHRLQGSVMELLQGVDGVIKRTENVTLKKPETFPKNQRRVFRAPDLKGMLEVFRELTDVRRYWVDVTVAPNNISCAVISEDKRQVSSPKPQIIYGARGTLYTFQSLVNFNYCTGILGSQSITSGKHYWEVDVSKKTAWILGVCAGFQPDAMCNIEKNENYQPKYGYWVIGLEEGVKCSAFQDSSFHTPSVPFIVPLSVIICPDRVGVFLDYEACTVSFFNITNHGFLIYKFSHCSFSQPVFPYLNPRKCGVPMTLCSPSS [human TRIM5α, 330-340 = GARGTLYTFQSLV]”, for which the enrichment stood at 0.145 ± 0.033.

Turning to “MASGILVNVKEEVTCPICLELLTQPLSLDCGHSFCQACLTANHKKSMLDKGESSCPVCRISYQPENIRPNRHVANIVEKLREVKLSPEGQKVDHCARHGEKLLLFCQEDGKVICWLCERSQEHRGHHTFLTEEVAREYQVKLQAALEMLRQKQQEAEELEADIREEKASWKTQIQYDKTNVLADFEQLRDILDWEESNELQNLEKEEEDILKSLTNSETEMVQQTQSLRELISDLEHRLQGSVMELLQGVDGVIKRTENVTLKKPETFPKNQRRVFRAPDLKGMLEVFRELTDVRRYWVDVTVAPNNISCAVISEDKRQVSSPKPQIIYGARGTLYTFQTFTNFNYCTGILGSQSITSGKHYWEVDVSKKTAWILGVCAGFQPDAMCNIEKNENYQPKYGYWVIGLEEGVKCSAFQDSSFHTPSVPFIVPLSVIICPDRVGVFLDYEACTVSFFNITNHGFLIYKFSHCSFSQPVFPYLNPRKCGVPMTLCSPSS [human TRIM5α, 330-340 = GARGTLYTFQTFT]”, the enrichment came out at 1.07 ± 0.44. On the same count and under the same terms, the figure for “MASGILVNVKEEVTCPICLELLTQPLSLDCGHSFCQACLTANHKKSMLDKGESSCPVCRISYQPENIRPNRHVANIVEKLREVKLSPEGQKVDHCARHGEKLLLFCQEDGKVICWLCERSQEHRGHHTFLTEEVAREYQVKLQAALEMLRQKQQEAEELEADIREEKASWKTQIQYDKTNVLADFEQLRDILDWEESNELQNLEKEEEDILKSLTNSETEMVQQTQSLRELISDLEHRLQGSVMELLQGVDGVIKRTENVTLKKPETFPKNQRRVFRAPDLKGMLEVFRELTDVRRYWVDVTVAPNNISCAVISEDKRQVSSPKPQIIYGARGTLYTFQTFVNFNYCTGILGSQSITSGKHYWEVDVSKKTAWILGVCAGFQPDAMCNIEKNENYQPKYGYWVIGLEEGVKCSAFQDSSFHTPSVPFIVPLSVIICPDRVGVFLDYEACTVSFFNITNHGFLIYKFSHCSFSQPVFPYLNPRKCGVPMTLCSPSS [human TRIM5α, 330-340 = GARGTLYTFQTFV]” is 0.0343 ± 0.048.

“MASGILVNVKEEVTCPICLELLTQPLSLDCGHSFCQACLTANHKKSMLDKGESSCPVCRISYQPENIRPNRHVANIVEKLREVKLSPEGQKVDHCARHGEKLLLFCQEDGKVICWLCERSQEHRGHHTFLTEEVAREYQVKLQAALEMLRQKQQEAEELEADIREEKASWKTQIQYDKTNVLADFEQLRDILDWEESNELQNLEKEEEDILKSLTNSETEMVQQTQSLRELISDLEHRLQGSVMELLQGVDGVIKRTENVTLKKPETFPKNQRRVFRAPDLKGMLEVFRELTDVRRYWVDVTVAPNNISCAVISEDKRQVSSPKPQIIYGARGTLYTFQTLTNFNYCTGILGSQSITSGKHYWEVDVSKKTAWILGVCAGFQPDAMCNIEKNENYQPKYGYWVIGLEEGVKCSAFQDSSFHTPSVPFIVPLSVIICPDRVGVFLDYEACTVSFFNITNHGFLIYKFSHCSFSQPVFPYLNPRKCGVPMTLCSPSS [human TRIM5α, 330-340 = GARGTLYTFQTLT]”: the enrichment was 0.0282 ± 0.037. On the same count and under the same terms, the figure for “MASGILVNVKEEVTCPICLELLTQPLSLDCGHSFCQACLTANHKKSMLDKGESSCPVCRISYQPENIRPNRHVANIVEKLREVKLSPEGQKVDHCARHGEKLLLFCQEDGKVICWLCERSQEHRGHHTFLTEEVAREYQVKLQAALEMLRQKQQEAEELEADIREEKASWKTQIQYDKTNVLADFEQLRDILDWEESNELQNLEKEEEDILKSLTNSETEMVQQTQSLRELISDLEHRLQGSVMELLQGVDGVIKRTENVTLKKPETFPKNQRRVFRAPDLKGMLEVFRELTDVRRYWVDVTVAPNNISCAVISEDKRQVSSPKPQIIYGARGTLYTFQTLVNFNYCTGILGSQSITSGKHYWEVDVSKKTAWILGVCAGFQPDAMCNIEKNENYQPKYGYWVIGLEEGVKCSAFQDSSFHTPSVPFIVPLSVIICPDRVGVFLDYEACTVSFFNITNHGFLIYKFSHCSFSQPVFPYLNPRKCGVPMTLCSPSS [human TRIM5α, 330-340 = GARGTLYTFQTLV]” is 0.209 ± 0.24.

The same series, now with this note: library: insertions and deletions.
Sequence “MASGILVNVKEEVTCPICLELLTQPLSLDCGHSFCQACLTANHKKSMLDKGESSCPVCRISYQPENIRPNRHVANIVEKLREVKLSPEGQKVDHCARHGEKLLLFCQEDGKVICWLCERSQEHRGHHTFLTEEVAREYQVKLQAALEMLRQKQQEAEELEADIREEKASWKTQIQYDKTNVLADFEQLRDILDWEESNELQNLEKEEEDILKSLTNSETEMVQQTQSLRELISDLEHRLQGSVMELLQGVDGVIKRTENVTLKKPETFPKNQRRVFRAPDLKGMLEVFRELTDVRRYWVDVTVAPNNISCAVISEDKRQVSSPKPQIIYGARGTNFNYCTGILGSQSITSGKHYWEVDVSKKTAWILGVCAGFQPDAMCNIEKNENYQPKYGYWVIGLEEGVKCSAFQDSSFHTPSVPFIVPLSVIICPDRVGVFLDYEACTVSFFNITNHGFLIYKFSHCSFSQPVFPYLNPRKCGVPMTLCSPSS [human TRIM5α, 6-codon deletion at 335]” returned an enrichment of 0.947 ± 0.96. Turning to “MASGILVNVKEEVTCPICLELLTQPLSLDCGHSFCQACLTANHKKSMLDKGESSCPVCRISYQPENIRPNRHVANIVEKLREVKLSPEGQKVDHCARHGEKLLLFCQEDGKVICWLCERSQEHRGHHTFLTEEVAREYQVKLQAALEMLRQKQQEAEELEADIREEKASWKTQIQYDKTNVLADFEQLRDILDWEESNELQNLEKEEEDILKSLTNSETEMVQQTQSLRELISDLEHRLQGSVMELLQGVDGVIKRTENVTLKKPETFPKNQRRVFRAPDLKGMLEVFRELTDVRRYWVDVTVAPNNISCAVISEDKRQVSSPKPQIIYGARGTNYCTGILGSQSITSGKHYWEVDVSKKTAWILGVCAGFQPDAMCNIEKNENYQPKYGYWVIGLEEGVKCSAFQDSSFHTPSVPFIVPLSVIICPDRVGVFLDYEACTVSFFNITNHGFLIYKFSHCSFSQPVFPYLNPRKCGVPMTLCSPSS [human TRIM5α, 8-codon deletion at 335]”, the enrichment was 0.691 ± 0.23. On to “MASGILVNVKEEVTCPICLELLTQPLSLDCGHSFCQACLTANHKKSMLDKGESSCPVCRISYQPENIRPNRHVANIVEKLREVKLSPEGQKVDHCARHGEKLLLFCQEDGKVICWLCERSQEHRGHHTFLTEEVAREYQVKLQAALEMLRQKQQEAEELEADIREEKASWKTQIQYDKTNVLADFEQLRDILDWEESNELQNLEKEEEDILKSLTNSETEMVQQTQSLRELISDLEHRLQGSVMELLQGVDGVIKRTENVTLKKPETFPKNQRRVFRAPDLKGMLEVFRELTDVRRYWVDVTVAPNNISCAVISEDKRQVSSPKPQIIYGARGTQIIYGARGTRYQTFVNFNYCTGILGSQSITSGKHYWEVDVSKKTAWILGVCAGFQPDAMCNIEKNENYQPKYGYWVIGLEEGVKCSAFQDSSFHTPSVPFIVPLSVIICPDRVGVFLDYEACTVSFFNITNHGFLIYKFSHCSFSQPVFPYLNPRKCGVPMTLCSPSS [human TRIM5α, 9-codon duplication at 326]”, for which the enrichment worked out at 0.39 ± 0.32. The sequence “MASGILVNVKEEVTCPICLELLTQPLSLDCGHSFCQACLTANHKKSMLDKGESSCPVCRISYQPENIRPNRHVANIVEKLREVKLSPEGQKVDHCARHGEKLLLFCQEDGKVICWLCERSQEHRGHHTFLTEEVAREYQVKLQAALEMLRQKQQEAEELEADIREEKASWKTQIQYDKTNVLADFEQLRDILDWEESNELQNLEKEEEDILKSLTNSETEMVQQTQSLRELISDLEHRLQGSVMELLQGVDGVIKRTENVTLKKPETFPKNQRRVFRAPDLKGMLEVFRELTDVRRYWVDVTVAPNNISCAVISEDKRQVSSPKPQIIYGARGTQTFVNFNYCTGILGSQSITSGKHYWEVDVSKKTAWILGVCAGFQPDAMCNIEKNENYQPKYGYWVIGLEEGVKCSAFQDSSFHTPSVPFIVPLSVIICPDRVGVFLDYEACTVSFFNITNHGFLIYKFSHCSFSQPVFPYLNPRKCGVPMTLCSPSS [human TRIM5α, 2-codon deletion at 335]” returned an enrichment of 1.85 ± 2.5. Still for that read-out and setting: the figure for “MASGILVNVKEEVTCPICLELLTQPLSLDCGHSFCQACLTANHKKSMLDKGESSCPVCRISYQPENIRPNRHVANIVEKLREVKLSPEGQKVDHCARHGEKLLLFCQEDGKVICWLCERSQEHRGHHTFLTEEVAREYQVKLQAALEMLRQKQQEAEELEADIREEKASWKTQIQYDKTNVLADFEQLRDILDWEESNELQNLEKEEEDILKSLTNSETEMVQQTQSLRELISDLEHRLQGSVMELLQGVDGVIKRTENVTLKKPETFPKNQRRVFRAPDLKGMLEVFRELTDVRRYWVDVTVAPNNISCAVISEDKRQVSSPKPQIIYGARGTRARGTRYQTFVNFNYCTGILGSQSITSGKHYWEVDVSKKTAWILGVCAGFQPDAMCNIEKNENYQPKYGYWVIGLEEGVKCSAFQDSSFHTPSVPFIVPLSVIICPDRVGVFLDYEACTVSFFNITNHGFLIYKFSHCSFSQPVFPYLNPRKCGVPMTLCSPSS [human TRIM5α, 5-codon duplication at 331]” is 1.37 ± 0.55; for “MASGILVNVKEEVTCPICLELLTQPLSLDCGHSFCQACLTANHKKSMLDKGESSCPVCRISYQPENIRPNRHVANIVEKLREVKLSPEGQKVDHCARHGEKLLLFCQEDGKVICWLCERSQEHRGHHTFLTEEVAREYQVKLQAALEMLRQKQQEAEELEADIREEKASWKTQIQYDKTNVLADFEQLRDILDWEESNELQNLEKEEEDILKSLTNSETEMVQQTQSLRELISDLEHRLQGSVMELLQGVDGVIKRTENVTLKKPETFPKNQRRVFRAPDLKGMLEVFRELTDVRRYWVDVTVAPNNISCAVISEDKRQVSSPKPQIIYGARGTRCTGILGSQSITSGKHYWEVDVSKKTAWILGVCAGFQPDAMCNIEKNENYQPKYGYWVIGLEEGVKCSAFQDSSFHTPSVPFIVPLSVIICPDRVGVFLDYEACTVSFFNITNHGFLIYKFSHCSFSQPVFPYLNPRKCGVPMTLCSPSS [human TRIM5α, 9-codon deletion at 336]” it is 1.56 ± 1.3.
